# Experimental data reported in PubChem BioAssay AID686979 (National Center for Advancing Translational Sciences (NCATS), 2013).
# Where “and” joins values, the source holds several entries; their conditions need not be identical. Equal entries are not always repeated. Hit rate of the full screen: of about 420,000 compounds, about 50,000 (12%) were called active. Inconclusive means that the source gave no clear call. Such entries were picked first, then a sample of the others. Calls come from the whole dose curve; as a rule, active = well fitted inhibition curve with a large enough effect; inconclusive = small, poorly fitted or top-dose-only effect; inactive = flat fitted curve, though single readings scatter. Potencies of inconclusive entries are left out as doubtful fits.
# Experiment: qHTS for Inhibitors of human tyrosyl-DNA phosphodiesterase 1 (TDP1): qHTS in cells in presence of CPT; note: nearly all actives have a fitted effect of over 55% in size
# Details: chicken DT40 Tdp1-/-;hTDP1 cells + 20 nM CPT, ATP luminescence, 48 h; activity change, negative = growth inhibition: at 46.2 µM (top of the series) unless noted
# Outline: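 Cell growth measured by CellTiter-Glo luminescence after a minimum 48 h, 37 C compound exposure with 20 nM CPT in Tdp1-knockout DT40 cells stably expressing hTDP1, seeded 400/well; qHTS titration format.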
# % is set by controls: 0 for no effect and ±100 for the full control effect; potency is the fitted concentration of half-maximal effect; tags give direction and shape of the fitted curve.
Compound,Potency,"activity change, negative = growth inhibition"
C/C(=N\NC(=O)c1ccncc1)c1cccc(NC(=O)c2ccc(Cl)s2)c1,"inconclusive [inhibitor, partial curve]",
CC(=O)N1c2ccc(S(=O)(=O)N3CCCCC3)cc2CC1C(=O)Nc1ccc(C)cc1 (stereo not drawn),"inconclusive [inhibitor, single point]",
COc1ccc(N(C)C(=O)c2cc3c(s2)-c2ccc(Cl)cc2S(=O)(=O)C3)c(OC)c1,active: 18.4 µM,
CCSc1nc2sc3c(c2c(=O)n1-c1ccc(C)cc1)CCCC3,"inconclusive [inhibitor, partial curve, poor fit]",
O=C(Nc1cccc(C(F)(F)F)c1)C1Cc2c(-c3ccc(Cl)cc3)ccnc2O1 (stereo not drawn),"inconclusive [inhibitor, single point]",
O=C(CC1N=C2c3ccccc3N=C(SCc3cccc(F)c3)N2C1=O)NC1CCCCC1 (stereo not drawn),"inconclusive [inhibitor, partial curve]",
COc1cccc(CNCc2c(C(=O)O)c(C)n(Cc3ccc(F)cc3Cl)c2C)c1OC,"inconclusive [inhibitor, single point]",
O=C(Nc1ccc(F)c(F)c1)c1ccc(F)c(S(=O)(=O)N2CCC3(CC2)OCCO3)c1,active: 6.51 µM and active: 16.4 µM,
CCN(Cc1ccccc1)S(=O)(=O)c1ccc(OC)cc1,"inconclusive [inhibitor, single point]",
CC(C)(C)NC(=O)C(c1ccncc1)N(C(=O)Cn1nnc(-c2ccc(F)cc2)n1)c1ccccc1 (stereo not drawn),"inconclusive [inhibitor, single point]",
O=S(=O)(Nc1cccc(-c2ccc(N3CCCCC3)nn2)c1)c1ccc(F)cc1F,"inconclusive [inhibitor, single point]",
Cc1ccccc1OCC(=O)Nc1cc(C)c(O)c(-c2nc3ccccc3o2)c1,active: 10 µM,
S=c1[nH]nc(-c2ccccn2)n1/N=C/c1ccc(Cl)cc1,,inactive: 1.38%
CCC(=O)N1CCC(C)(C(=O)Nc2ccc3c(c2)OCCO3)C1 (stereo not drawn),,inactive: -6.04%
O=[N+]([O-])c1ccc(N2CCN(S(=O)(=O)c3ccccc3)CC2)c2cccnc12,"inconclusive [inhibitor, single point]",
Cc1cccc(N2CCN(C(=O)C3CCN(S(=O)(=O)c4cccnc4)CC3)CC2)c1C,active: 18.4 µM,
COC(=O)c1ccccc1NC(=O)CN1CCCCCC1,"inconclusive [inhibitor, single point]",
CCN(CC(=O)Nc1ccc(NC(C)=O)cc1)C(=O)COc1ccc(C(=O)c2ccccc2)cc1,,inactive: 2.89%
COc1ccc(S(=O)(=O)N(C)c2ccc(C(=O)N3CCCCC3)cc2)cc1,"inconclusive [inhibitor, single point]",
CCn1c(=O)n(CC2CCC(C(=O)NC(C)C)CC2)c(=O)c2sccc21 (stereo not drawn),,inactive: -2.53%
COc1cc(/C=C2/C(=O)ON=C2c2ccccc2)ccc1O,active: 23.1 µM,
O=C(CC(C(=O)O)c1ccccc1)Nc1cccc2ccccc12 (stereo not drawn),,inactive: 12.5%
COc1ccc(NC(=O)C(=O)N2N=C3CCCCC3C2(O)C(F)(F)F)cc1 (stereo not drawn),,inactive: 0.0681%
CC1CSc2n(-c3cccc(C(F)(F)F)c3)cc(-c3ccccc3)[n+]21 (stereo not drawn),"inconclusive [inhibitor, partial curve]",
CCCN(CC(=O)Nc1ccc(F)c(F)c1F)C(=O)c1cc([N+](=O)[O-])ccc1N1CCOCC1,"inconclusive [inhibitor, single point]",

Compound,Potency,"activity change, negative = growth inhibition"
CCOC(=O)Nc1ccc2nc(-c3cscn3)[nH]c2c1,active: 6.51 µM,
COc1ccc2cc3c(N)nn(C(=O)c4ccc(F)cc4Cl)c3nc2c1,active: 9.2 µM,
CS(=O)(=O)c1ccc(Cl)c(NC(=O)Cc2ccccc2F)c1,"inconclusive [inhibitor, single point]",
N#Cc1c2c(c(NCc3ccco3)n3c1nc1ccccc13)CCC2,,inactive: -59.3%
CN(C)S(=O)(=O)c1cccc(NC(=O)CN2C(=O)NC(CCc3ccccc3)C2=O)c1 (stereo not drawn),,inactive: -16.6%
COC(=O)c1cnn(-c2ccccc2)c1/C=N/NC(=S)Nc1ccccc1,"inconclusive [inhibitor, single point]",
COc1ccc(NC(=O)CSc2c(C(C)C)cnc3c2c(=O)n(C)c(=O)n3C)c(OC)c1,active: 23.1 µM,
CCC(C)NC(=O)C1CCC(CNS(=O)(=O)c2ccc3c(c2)CC(C)N3C(=O)C2CC2)CC1 (stereo not drawn),"inconclusive [inhibitor, single point]",
Cc1ccc(NC(=O)c2cc(S(=O)(=O)N3CCCCC3)ccc2N2CCOCC2)c(C)c1,"inconclusive [inhibitor, single point]",
O=C(c1ccc(Cl)cc1)C1CCN(C(=S)Nc2ccccc2)CC1,,inactive: -17.4%
Cc1cc(NC(=O)CN2CCC(O)CC2)nc2c1c(=O)oc1ccccc12,"inconclusive [inhibitor, single point]",
CCOC(=O)[C@H]1[C@H]2COc3cc(OC)ccc3[C@@H]2N2C(=O)c3cc(F)ccc3NC(=O)[C@@]12C,"inconclusive [inhibitor, single point]",
O=C(O)Cc1ccc(NS(=O)(=O)c2ccc3ccccc3c2)cc1,,inactive: -3.62%
O=C(/C=C/c1ccccc1)Nn1cnc2ccccc2c1=O,active: 16.4 µM,
CSc1ncc2[nH]c(C(O)c3ccccc3)nc2n1 (stereo not drawn),active: 9.2 µM,
S=c1sc2c(N3CCN(Cc4ccccc4)CC3)ncnc2n1-c1ccccc1,active: 16.4 µM,
C[C@]12CC[C@H](O)CC1=CCC1C2CC[C@@]2(C)C1CC[C@@H]2NCc1ccccc1 (stereo partly drawn),active: 20.6 µM,
Cc1nc2scc(C)n2c(=O)c1S(=O)(=O)N1CCN(c2ccccn2)CC1,,inactive: -0.548%
CC[C@]12c3[nH]c4ccc(Cl)cc4c3CCN1C(=O)[C@@H](CC(=O)NCCc1ccccn1)C[C@@H]2C(=O)N1CCN(C(=O)c2ccco2)CC1,,inactive: -26.8%
O=C(COc1cc2oc(=O)cc(-c3ccccc3)c2cc1Cl)NCCN1CCOCC1,active: 4.11 µM,
CC1=NN(C(=O)c2ccc(Cn3ccc([N+](=O)[O-])n3)cc2)C(O)(C(F)(F)F)C1 (stereo not drawn),,inactive: -19.3%
CCc1nc2ccc(C(=O)Nc3ccc(OC)c(OC)c3)cn2c1N(CC)Cc1ccc(OC)c(OC)c1,"inconclusive [inhibitor, single point]",
CC(OC(=O)Cc1ccc(Br)cc1)C(=O)NC1CCCCC1C (stereo not drawn),"inconclusive [inhibitor, single point]",
Cn1cc(Br)c(-c2cccc(NC(=O)CCCC(=O)O)c2)n1,,inactive: -1.4%
COc1cc(C2Nc3ccc4ccccc4c3C3=C2C(=O)CC(C)(C)C3)ccc1OC(C)C(=O)O (stereo not drawn),,inactive: -22.5%

Compound,Potency,"activity change, negative = growth inhibition"
Cc1nn2c(N3CCOCC3)cc(C(C)C)nc2c1-c1ccccc1,"inconclusive [inhibitor, single point]",
C=CC[C@H](CC(=O)N(CCO)Cc1ccccc1)C(=O)N[C@@H](COC(=O)[C@H](CC=C)CC(=O)OC(C)(C)C)Cc1c[nH]c2ccccc12,active: 14.6 µM,
CC1(C)OC(=O)C2=C(CC(CCc3ccccc3)OC2c2ccccc2)O1 (stereo not drawn),active: 13 µM,
CCc1cc(Cn2nc(-c3ccccc3)cc2C(=O)NCc2cccc(Br)c2)on1,"inconclusive [inhibitor, single point]",
CC(Oc1ccc(-c2ccccc2)c(F)c1)c1ccn(S(=O)(=O)c2cccc3ccccc23)n1 (stereo not drawn),"inconclusive [inhibitor, single point]",
COc1ccc(-c2cn[nH]c2N)c(OC)c1,"inconclusive [inhibitor, partial curve]",
COc1ccc(NC(=O)CN(C)C(=O)Cc2c(C)nc3ccccc3c2C)cc1,"inconclusive [inhibitor, single point]",
CCOCCOC(=O)C1=C(C)N(C)C(=O)NC1c1ccccc1F (stereo not drawn),,inactive: -20.7%
Cc1cnc(NC(=O)c2ccc(-c3nc4ccccc4s3)o2)s1,"inconclusive [inhibitor, single point]",
CCOc1ccc(-n2c(SCC(=O)c3ccccc3)nc3c([nH]c4ccccc43)c2=O)cc1,"inconclusive [inhibitor, partial curve]",
CC(C)NC(=O)C1(C#N)C=C1c1ccccc1 (stereo not drawn),"inconclusive [inhibitor, single point]",
CC(C)c1nc2sc3c(N4CCCCC4)ncnc3c2c2c1CCCC2,,inactive: 6.13%
COc1ccc(CC(=O)Nc2ccc(-c3nc4ccccc4s3)c(C)c2)cc1,"inconclusive [inhibitor, partial curve]",
CCOC(=O)c1c[nH][nH]c1=O,,inactive: 1.94%
CC(=O)c1c(C)cc(C)c(CSc2nnc(-c3ccco3)o2)c1C,active: 12.6 µM,
Cc1ccsc1/C=N/NC(=O)c1cccs1,,inactive: 10.8%
NC(=O)c1ccc(N2CCN(c3ncc(C(F)(F)F)cc3Cl)CC2)cc1,,inactive: -1.9%
COc1ccc(C/C(C)=N\NC(=O)c2c[nH]c3ccccc23)cc1OC,,inactive: -5.85%
CCn1c(=O)cc(SCC(=O)NCc2ccc(C)o2)c2ccccc21,active: 14.6 µM,
Fc1ccc(NC(=S)NCc2ccc3c(c2)OCO3)cc1,"inconclusive [inhibitor, single point]",
CC(C)Nc1nc(Nc2ccc(C#N)cc2)c2sccc2n1,active: 14.6 µM,
CS(=O)(=O)N1CCN(c2ccccc2NC(=O)c2ccc([N+](=O)[O-])o2)CC1,active: 3.66 µM,
COc1ccc(N=Nc2c(C)[nH]c3ccccc23)cc1,"inconclusive [inhibitor, single point]",
